# From PubChem BioAssay (NCI)
#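 Dose response: 5 concentrations. Exposure: 48 h. Format: 96-well plates. Endpoint: linear interpolation; highest concentration if not reached. At the GI50, growth is halved.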 A number of entries come with more than one value. Only these are listed. The source may hold further records. For some assays here: The tests behind the records often covered other concentration ranges, not given here; some values may only mark the edge of a range.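 TGI denotes the concentration required for complete inhibition of growth.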 For some assays here: The records of an entry repeat one measurement (runs, samples, wells, individuals or studies). Brackets tell where a record comes from. A, B and so on number the origins entry by entry.
# Experiments:
# Experiment in all cases: NCI tumour cell line growth inhibition, 48 h
# [1] = test system: P388 leukemia
# [2] = test system: CCRF-CEM leukemia
# [3] = test system: SNB-78 CNS
# [4] = test system: SF-268 CNS
# [5] = test system: HL-60(TB) leukemia
# [6] = test system: CAKI-1 renal
# [7] = test system: MOLT-4 leukemia
# [8] = test system: RPMI-8226 leukemia
# [9] = test system: HOP-92 NSCLC
# [10] = test system: UACC-62 melanoma
# [11] = test system: A498 renal
# [12] = test system: HCT-15 colon
# [13] = test system: NCI-H23 lung
# [14] = test system: OVCAR-4 ovarian
# [15] = test system: UO-31 renal
# [16] = test system: HCC-2998 colon
# [17] = test system: U251 CNS
# [18] = test system: TK-10 renal
# [19] = test system: DMS 114 small cell lung
# [20] = test system: SF-295 CNS
# [21] = test system: SK-MEL-5 melanoma
# [22] = test system: HS 578T breast
# [23] = test system: NCI-H460 lung
# [24] = test system: NCI-H522 lung
# [25] = test system: ACHN renal
# [26] = test system: KM12 colon
smiles,measurement,setting,value
CC1=C(C)C(=O)O[C@@H]([C@](C)(O)[C@]2(O)CC[C@@]3(O)[C@@H]4C[C@H]5O[C@]56[C@@H](O)C=CC(=O)[C@]6(C)[C@H]4CC[C@]23C)C1,TGI,[1],1.3 µM and 33.4 µM
same,TGI,[2],798 nM and 26.5 µM
same,TGI,[3],67.5 µM and 5.11 µM
same,TGI,[4],27.2 µM and 1.07 µM
same,TGI,[5],228 nM [1 test] and 8.09 µM [mean of 2 tests]
same,TGI,[6],44.5 nM and 2.69 µM
same,TGI,[7],281 nM [1 test] and 10.2 µM [mean of 3 tests]
same,TGI,[8],742 nM and 12.8 µM
CCC(C)(C)C(=O)O[C@H]1C[C@@H](C)C=C2C=C[C@H](C)[C@H](CC[C@@H]3C[C@@H](O)CC(=O)O3)[C@H]21,TGI,[9],< 3 nM [sample A] and 265 nM [sample B]
same,TGI,[10],898 nM [sample A] and 13.3 µM [sample B]
same,TGI,[11],7.53 µM [sample A] and 595 nM [sample B]
O=c1cc(-c2cccc(C(F)(F)F)c2)[nH]c2cc3c(cc12)OCO3,TGI,[12],3.46 µM and > 100 µM
same,TGI,[13],50 µM and 747 nM
same,TGI,[10],4.68 µM and > 100 µM
same,TGI,[14],50 µM and 3.92 µM
same,TGI,[15],50 µM and 2.05 µM
same,TGI,[16],22 µM and 2.16 µM
same,TGI,[17],50 µM and 412 nM
CCCCCCCCCCCCCC(=O)O[C@H]1CC[C@H](NC(=O)[C@H](OC)[C@H](O)[C@@H](O)[C@H](O)/C=C/C(C)C)C(=O)NC1,TGI,[18],"760 nM, 18.4 µM, 423 nM"
same,TGI,[19],8.72 nM and 7.19 µM
same,TGI,[20],7.66 µM and 655 nM
same,GI50,[21],298 nM and 8.73 nM
same,TGI,[22],51.2 µM and 3.78 µM
same,TGI,[23],"1.01 µM, 6.8 µM, 11.5 µM"
same,TGI,[24],"868 nM, 2.83 µM, 11.1 µM"
same,TGI,[5],"4.09 µM, 6.04 µM, 336 nM"
same,TGI,[16],"836 nM, 1.09 µM, 8.15 µM, 13.8 µM"
same,TGI,[25],16.7 µM and 1.46 µM
same,GI50,[26],166 nM and < 1 nM
